In publication PMC6873181 (2019) one finds Kd data, which are given here for seven molecules.

Read-outs that look alike come from different tables or passages of the source.

The target of assay [1] is human insulin receptor isoform A (human, UniProt P06213-2).
Assay [2] concerns the target T1, human IGF-1 receptor (human, UniProt P08069 31-1367). The assay can be described thus: series ".
Assay [3] concerns the target T1, human IGF-1 receptor. The assay can be described thus: series #.
For assay [4], the target named is T1, human IGF-1 receptor. In words: series $.
In assay [5] the target is T1, human IGF-1 receptor. In words: series ^.
For assay [6], the target named is T1, human IGF-1 receptor. In words: series €.
Assay [7] addresses T1, human IGF-1 receptor.

B1: human insulin-like growth factor 1 (ligand)
chain: not shown
modifications: three intramolecular disulfides; N-terminal Gly(-1) left by TEV cleavage is included (mature number + 48 = entry number)
Broadly, the Kd is a measure of binding affinity in units of concentration. Lower therefore signals a tighter complex. Consider B1, for which the Kd stood at 24 nM in assay [1]; 0.19 nM with human IGF-1 receptor [2]; 0.11 nM in the assay with human IGF-1 receptor [3]; 0.24 nM with human IGF-1 receptor [4]; 0.24 nM with human IGF-1 receptor [5]; 0.25 nM with human IGF-1 receptor [6].

B2: His-54–IGF-1 (ligand)
chain: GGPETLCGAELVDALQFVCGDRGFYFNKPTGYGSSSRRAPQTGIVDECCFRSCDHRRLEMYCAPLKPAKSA
modifications: three intramolecular disulfides; N-terminal Gly(-1) included
Regarding B2, the Kd in assay [1] came out at 12.2 nM; in the assay with human IGF-1 receptor [7] it was 0.38 nM.

B3: Val-54–IGF-1 (ligand)
chain: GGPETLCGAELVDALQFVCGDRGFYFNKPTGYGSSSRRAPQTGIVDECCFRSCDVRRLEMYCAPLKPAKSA
modifications: three intramolecular disulfides; N-terminal Gly(-1) included
Consider B3, for which the Kd in assay [1] was 11.2 nM; with human IGF-1 receptor [7], 0.23 nM.

B4: Thr-51–IGF-1 (ligand)
chain: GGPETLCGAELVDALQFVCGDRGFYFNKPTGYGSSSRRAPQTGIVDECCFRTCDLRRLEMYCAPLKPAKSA
modifications: three intramolecular disulfides; N-terminal Gly(-1) included
For the molecule B4, the Kd in assay [1] stood at 8.1 nM; with human IGF-1 receptor [7], 0.2 nM.

B5: His-58–IGF-1 (ligand)
chain: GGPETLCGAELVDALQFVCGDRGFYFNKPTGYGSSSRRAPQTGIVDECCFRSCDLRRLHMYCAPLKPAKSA
modifications: three intramolecular disulfides; N-terminal Gly(-1) included
With B5, the Kd in assay [1] came out at 91 nM; with human IGF-1 receptor [7], 3.3 nM.

B6: His-51–IGF-1 (ligand)
chain: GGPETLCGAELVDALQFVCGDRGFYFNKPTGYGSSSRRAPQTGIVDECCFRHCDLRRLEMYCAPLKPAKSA
modifications: three intramolecular disulfides; N-terminal Gly(-1) included
On to B6, for which the results for the dissociation constant (Kd) (in assay [1]; with human IGF-1 receptor [7]) were 38.7 nM and 0.22 nM, respectively.

B7: Asp-58–IGF-1 (ligand)
chain: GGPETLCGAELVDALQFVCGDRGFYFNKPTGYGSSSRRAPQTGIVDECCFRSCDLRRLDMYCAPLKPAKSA
modifications: three intramolecular disulfides; N-terminal Gly(-1) included
B7: the results for the Kd (in assay [1]; with human IGF-1 receptor [7]) were 24.1 nM and 0.8 nM, respectively.
